Source: a collection of fitness landscapes (doi:10.1016/j.celrep.2020.107928)
The full ranking holds about 81,000 sequences; the median of “one-hybrid fitness for binding NBS DNA” is about -0.1, and the highest 2% start at about 0.36. The list shows a part of the results.

B1: Caulobacter ParB omega fusion; a variant is named by its letters at X, in order, B8GW30 (parent)
chain: MESVVVGEPGMSEGRRGLGRGLSALLGEVDAAPAQAPGEQLGGSREAPIEILQRNPDQPRRTFREEDLEDLSNSIREKGVLQPILVRPSPDTAGEYQIVAGERAWRAAQRAGLKTVPIMVRELDDLAVLEIGIIENVQRADLNVLEEALSYKVLMEKFERTQENIAQTIGKSXSHVANXMRLLXLPDEVQSYLVSGELTAXHARAIAAAADPVALAKQIIEGGLSVRETEALARKAPNLSAGKSKGGRPPRVKDTDTQALESDLSSVLGLDVSIDHRGSTGTLTITYATLEQLDDLCNRLTRGI

Variants of: B1
Assay: one-hybrid fitness for binding NBS DNA (the Noc-binding site; scaled: cognate 1, non-cognate 0); higher = stronger binding
Conditions: with NBS DNA site
Procedure, shortened: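 Bacterial one-hybrid selection in E. coli USO rpoZ- hisB- pyrF- with a HIS3 reporter carrying the site 19 bp from the promoter, screening Caulobacter ParB libraries with four specificity codons randomised (NNS). Cells grew 48 hours at 37°C on M9-minus-histidine plus 0.1 mM IPTG and 5 mM 3-AT. Plasmids before and after selection were Illumina-sequenced, three replicate libraries pooled, and variants under 10 reads dropped. Fitness is the log change in variant-to-wild-type read ratio, rescaled to cognate 1, non-cognate 0.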

| Variant | one-hybrid fitness for binding NBS DNA |
| --- | --- |
| VAIC | ≤ 0.2 |
| FKMT | ≤ 0.2 |
| KMCC | ≤ 0.2 |
| KRSW | ≤ 0.2 |
| RARM | ≤ 0.2 |
| LQIS | ≤ 0.2 |
| DKHR | ≤ 0.2 |
| VPDF | ≤ 0.2 |
| SLTF | ≤ 0.2 |
| GECG | ≤ 0.2 |
| QWSN | ≤ 0.2 |
| RTEA | ≤ 0.2 |
| ADFD | ≤ 0.2 |
| RIPE | ≤ 0.2 |
| VVVT | ≤ 0.2 |
| KTWN | ≤ 0.2 |
| WRWG | ≤ 0.2 |
| TFHY | ≤ 0.2 |
| MATY | ≤ 0.2 |
| GNCS | ≤ 0.2 |
| STGL | ≤ 0.2 |
| YKRQ | ≤ 0.2 |
| PPSC | ≤ 0.2 |
| RTYS | 0.491 |

| Variant | one-hybrid fitness for binding NBS DNA |
| --- | --- |
| GCPT | ≤ 0.2 |
| CRDR | ≤ 0.2 |
| RSAF | ≤ 0.2 |
| AMAM | ≤ 0.2 |
| IWGT | ≤ 0.2 |
| REIS | ≤ 0.2 |
| CYHP | ≤ 0.2 |
| VSVN | ≤ 0.2 |
| ACEA | ≤ 0.2 |
| AYQT | ≤ 0.2 |
| TVSW | ≤ 0.2 |
| QQDM | ≤ 0.2 |
| TWCL | ≤ 0.2 |
| VNLV | ≤ 0.2 |
| NVTC | ≤ 0.2 |
| AIHG | ≤ 0.2 |
| RKMS | 0.586 |
| HSSM | ≤ 0.2 |
| SPYR | ≤ 0.2 |
| PLMH | ≤ 0.2 |
| PMVF | ≤ 0.2 |
| VGTH | ≤ 0.2 |
| NHTS | ≤ 0.2 |
| VPRE | ≤ 0.2 |

| Variant | one-hybrid fitness for binding NBS DNA |
| --- | --- |
| QAMD | ≤ 0.2 |
| MTTR | ≤ 0.2 |
| HPDP | ≤ 0.2 |
| DKQR | ≤ 0.2 |
| HSTV | ≤ 0.2 |
| RYFY | ≤ 0.2 |
| RLDA | ≤ 0.2 |
| HGKW | ≤ 0.2 |
| IQYG | ≤ 0.2 |
| NSHA | ≤ 0.2 |
| PEAY | ≤ 0.2 |
| NRTW | ≤ 0.2 |
| QLIY | ≤ 0.2 |
| TVDG | ≤ 0.2 |
| GCFC | ≤ 0.2 |
| FTNP | ≤ 0.2 |
| EVWR | ≤ 0.2 |
| QYTV | ≤ 0.2 |
| EKLD | ≤ 0.2 |
| QGTG | ≤ 0.2 |
| TKAS | ≤ 0.2 |
| CFQR | ≤ 0.2 |
| RIEF | ≤ 0.2 |
| EPRQ | ≤ 0.2 |

| Variant | one-hybrid fitness for binding NBS DNA |
| --- | --- |
| MEGT | ≤ 0.2 |
| KALR | ≤ 0.2 |
| AFRL | ≤ 0.2 |
| PWGS | ≤ 0.2 |
| PGKR | ≤ 0.2 |
| GLAP | ≤ 0.2 |
| RRNY | 0.589 |
| NEAR | ≤ 0.2 |
| GVKG | ≤ 0.2 |
| WMRS | ≤ 0.2 |
| EGAS | ≤ 0.2 |
| QQAC | ≤ 0.2 |
| LTYM | ≤ 0.2 |
| HCSW | ≤ 0.2 |
| PTDS | ≤ 0.2 |
| QSKH | 0.587 |
| HMYE | ≤ 0.2 |
| ATFE | ≤ 0.2 |
| YRWS | ≤ 0.2 |
| WPET | ≤ 0.2 |
| MHKS | ≤ 0.2 |
| QYPY | ≤ 0.2 |
| HSTG | ≤ 0.2 |
| NQTR | ≤ 0.2 |

| Variant | one-hybrid fitness for binding NBS DNA |
| --- | --- |
| IYSA | ≤ 0.2 |
| HVWS | ≤ 0.2 |
| PKPD | ≤ 0.2 |
| FCND | ≤ 0.2 |
| AYGK | ≤ 0.2 |
| SHER | ≤ 0.2 |
| ASST | ≤ 0.2 |
| KRQK | ≤ 0.2 |
| QAEY | ≤ 0.2 |
| YTTN | ≤ 0.2 |
| NANR | ≤ 0.2 |
| YLMC | ≤ 0.2 |
| GPDK | ≤ 0.2 |
| IVCS | ≤ 0.2 |
| RMRS | 0.642 |
| TRGY | ≤ 0.2 |
| FSPC | ≤ 0.2 |
| VWIS | ≤ 0.2 |
| ECPA | ≤ 0.2 |
| NAGV | ≤ 0.2 |
| TRYQ | ≤ 0.2 |
| MYRM | ≤ 0.2 |
| IITW | ≤ 0.2 |
| VSDA | ≤ 0.2 |

| Variant | one-hybrid fitness for binding NBS DNA |
| --- | --- |
| DTAV | ≤ 0.2 |
| VPYS | ≤ 0.2 |
| GLMG | ≤ 0.2 |
| RMYP | ≤ 0.2 |
| HSAG | ≤ 0.2 |
| HVVD | ≤ 0.2 |
| DVRA | ≤ 0.2 |
| KLMT | ≤ 0.2 |
| NPDR | ≤ 0.2 |
| HSPH | ≤ 0.2 |
| THML | ≤ 0.2 |
| ANGA | ≤ 0.2 |
| TKLI | ≤ 0.2 |
| VPLS | ≤ 0.2 |
| KRYG | ≤ 0.2 |
| RHPK | ≤ 0.2 |
| SEHG | ≤ 0.2 |
| SCWG | ≤ 0.2 |
| HYIY | ≤ 0.2 |
| FNKL | ≤ 0.2 |
| TNHD | ≤ 0.2 |
| KMNY | ≤ 0.2 |
| RMYR | 0.424 |
| EMIR | ≤ 0.2 |

| Variant | one-hybrid fitness for binding NBS DNA |
| --- | --- |
| HRLD | ≤ 0.2 |
| RNTH | ≤ 0.2 |
| PFER | ≤ 0.2 |
| VISK | ≤ 0.2 |
| KKPC | ≤ 0.2 |
| VIDR | ≤ 0.2 |
| DPQD | ≤ 0.2 |
| GCST | ≤ 0.2 |
| FPFF | ≤ 0.2 |
| CFML | ≤ 0.2 |
| TMEG | ≤ 0.2 |
| TYLT | ≤ 0.2 |
| LPYH | ≤ 0.2 |
| MFRF | ≤ 0.2 |
| SLHV | ≤ 0.2 |
| ENIT | ≤ 0.2 |
| LPFG | ≤ 0.2 |
| GHPS | ≤ 0.2 |
| TISN | ≤ 0.2 |
| YRTW | ≤ 0.2 |
| GLTL | ≤ 0.2 |
| IGLT | ≤ 0.2 |
| QQRK | 0.499 |
| DRNS | ≤ 0.2 |

| Variant | one-hybrid fitness for binding NBS DNA |
| --- | --- |
| IYKI | ≤ 0.2 |
| MIME | ≤ 0.2 |
| MTII | ≤ 0.2 |
| VRKY | 0.237 |
| IFLY | ≤ 0.2 |
| MDAV | ≤ 0.2 |
| QMIT | 0.402 |
| PEDC | ≤ 0.2 |
| NIQC | ≤ 0.2 |
| LVVD | ≤ 0.2 |
| YPRR | ≤ 0.2 |
| KQMI | ≤ 0.2 |
| LHYS | ≤ 0.2 |
| QVCV | ≤ 0.2 |
| FGSS | ≤ 0.2 |
| HVKA | ≤ 0.2 |
| TNPL | ≤ 0.2 |
| CRIR | ≤ 0.2 |
| SEQQ | ≤ 0.2 |
| SVQD | ≤ 0.2 |
| HHLW | ≤ 0.2 |
| PGKM | ≤ 0.2 |
| AISI | ≤ 0.2 |
| ESGW | ≤ 0.2 |

| Variant | one-hybrid fitness for binding NBS DNA |
| --- | --- |
| QRYT | 0.744 |
| RTNA | 0.363 |
| SRHC | ≤ 0.2 |
| MWPE | ≤ 0.2 |
| SYHG | ≤ 0.2 |
| SDRI | ≤ 0.2 |
| IVNL | ≤ 0.2 |
| ICCR | ≤ 0.2 |
| KSLF | ≤ 0.2 |
| KGTG | ≤ 0.2 |
| DHRT | ≤ 0.2 |
| TSNM | ≤ 0.2 |
| LAVS | ≤ 0.2 |
| KIMF | ≤ 0.2 |
| MWYG | ≤ 0.2 |
| PPGN | ≤ 0.2 |
| MLCG | ≤ 0.2 |
| DGNA | ≤ 0.2 |
| PDTT | ≤ 0.2 |
| RRVH | 0.321 |
| EKRV | ≤ 0.2 |
| NMDV | ≤ 0.2 |
| KDWW | ≤ 0.2 |
| ERSL | ≤ 0.2 |

| Variant | one-hybrid fitness for binding NBS DNA |
| --- | --- |
| HQFS | ≤ 0.2 |
| PINC | ≤ 0.2 |
| IVPC | ≤ 0.2 |
| PTQG | ≤ 0.2 |
| YMAL | ≤ 0.2 |
| ETKL | ≤ 0.2 |
| KPLL | ≤ 0.2 |
| CPYN | ≤ 0.2 |
| AFTI | ≤ 0.2 |
| TNNY | ≤ 0.2 |
| QHMC | ≤ 0.2 |
| RVGL | ≤ 0.2 |
| MCSS | ≤ 0.2 |
| RRNN | 0.493 |
| LYYS | ≤ 0.2 |
| TQST | ≤ 0.2 |
| EMCR | ≤ 0.2 |
| FPWR | ≤ 0.2 |
| QNLK | ≤ 0.2 |
| AYRD | ≤ 0.2 |
| ALSG | ≤ 0.2 |
| LPTT | ≤ 0.2 |
| NIVR | ≤ 0.2 |
| SCKA | ≤ 0.2 |

| Variant | one-hybrid fitness for binding NBS DNA |
| --- | --- |
| NGPS | ≤ 0.2 |
| FYYR | ≤ 0.2 |
| FAEG | ≤ 0.2 |
| CHTA | ≤ 0.2 |
| IDKY | ≤ 0.2 |
| YSSR | ≤ 0.2 |
| FDTC | ≤ 0.2 |
| GFVG | ≤ 0.2 |
| RSNV | ≤ 0.2 |
| TMTL | ≤ 0.2 |
| QQTI | ≤ 0.2 |
| NMRR | ≤ 0.2 |
| PKNM | ≤ 0.2 |
| DKIC | ≤ 0.2 |
| STIR | ≤ 0.2 |
| MSYR | ≤ 0.2 |
| GRNF | ≤ 0.2 |
| VCPA | ≤ 0.2 |
| YDTP | ≤ 0.2 |
| YFRC | ≤ 0.2 |
| DLGP | ≤ 0.2 |
| FHRS | ≤ 0.2 |
| YGAI | ≤ 0.2 |
| PYLY | ≤ 0.2 |

| Variant | one-hybrid fitness for binding NBS DNA |
| --- | --- |
| SPQP | ≤ 0.2 |
| KAPR | ≤ 0.2 |
| IYLV | ≤ 0.2 |
| MQGD | ≤ 0.2 |
| KMAS | ≤ 0.2 |
| CLLG | ≤ 0.2 |
| NCKS | ≤ 0.2 |
| GWRC | ≤ 0.2 |
| EHTD | ≤ 0.2 |
| VGDS | ≤ 0.2 |
| SLII | ≤ 0.2 |
| DCYG | ≤ 0.2 |
| TTNN | ≤ 0.2 |
| GRQW | ≤ 0.2 |
| GGSD | ≤ 0.2 |
| TSPQ | ≤ 0.2 |
| PNEL | ≤ 0.2 |
| MPFS | ≤ 0.2 |
| VAIR | ≤ 0.2 |
| WSLR | ≤ 0.2 |
| DGPW | ≤ 0.2 |
| IIVL | ≤ 0.2 |
| GAQI | ≤ 0.2 |
| LVYF | ≤ 0.2 |

| Variant | one-hybrid fitness for binding NBS DNA |
| --- | --- |
| RIAV | ≤ 0.2 |
| NVVV | ≤ 0.2 |
| SWRT | ≤ 0.2 |
| NGSL | ≤ 0.2 |
| KSTV | ≤ 0.2 |
| QPHE | ≤ 0.2 |
| QPNP | ≤ 0.2 |
| LLWN | ≤ 0.2 |
| AMQN | ≤ 0.2 |
| WPHG | ≤ 0.2 |
| RVQN | ≤ 0.2 |
| RQTL | ≤ 0.2 |
| YMAR | ≤ 0.2 |
| GPVK | ≤ 0.2 |
| WIMS | ≤ 0.2 |
| VHSW | ≤ 0.2 |
| EFYK | ≤ 0.2 |
| LNGG | ≤ 0.2 |
